Publication PMC4336329 (PLoS ONE, 2015)
Hit rate of the full screen: of about 310,000 compounds, about 14,000 (4.5%) showed an effect of 50% or more. Effects have a minus sign here. Some of the results follow.

molecular target: human ether-à-go-go-related gene (hERG) potassium channel (human, UniProt Q12809); test: primary screen, population patch clamp on CHO cells stably expressing hERG
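Further: peak tail current of the secondary pulse compared with the same well before compound.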

Chain of human ether-à-go-go-related gene (hERG) potassium channel (Q12809 whole entry, looked up): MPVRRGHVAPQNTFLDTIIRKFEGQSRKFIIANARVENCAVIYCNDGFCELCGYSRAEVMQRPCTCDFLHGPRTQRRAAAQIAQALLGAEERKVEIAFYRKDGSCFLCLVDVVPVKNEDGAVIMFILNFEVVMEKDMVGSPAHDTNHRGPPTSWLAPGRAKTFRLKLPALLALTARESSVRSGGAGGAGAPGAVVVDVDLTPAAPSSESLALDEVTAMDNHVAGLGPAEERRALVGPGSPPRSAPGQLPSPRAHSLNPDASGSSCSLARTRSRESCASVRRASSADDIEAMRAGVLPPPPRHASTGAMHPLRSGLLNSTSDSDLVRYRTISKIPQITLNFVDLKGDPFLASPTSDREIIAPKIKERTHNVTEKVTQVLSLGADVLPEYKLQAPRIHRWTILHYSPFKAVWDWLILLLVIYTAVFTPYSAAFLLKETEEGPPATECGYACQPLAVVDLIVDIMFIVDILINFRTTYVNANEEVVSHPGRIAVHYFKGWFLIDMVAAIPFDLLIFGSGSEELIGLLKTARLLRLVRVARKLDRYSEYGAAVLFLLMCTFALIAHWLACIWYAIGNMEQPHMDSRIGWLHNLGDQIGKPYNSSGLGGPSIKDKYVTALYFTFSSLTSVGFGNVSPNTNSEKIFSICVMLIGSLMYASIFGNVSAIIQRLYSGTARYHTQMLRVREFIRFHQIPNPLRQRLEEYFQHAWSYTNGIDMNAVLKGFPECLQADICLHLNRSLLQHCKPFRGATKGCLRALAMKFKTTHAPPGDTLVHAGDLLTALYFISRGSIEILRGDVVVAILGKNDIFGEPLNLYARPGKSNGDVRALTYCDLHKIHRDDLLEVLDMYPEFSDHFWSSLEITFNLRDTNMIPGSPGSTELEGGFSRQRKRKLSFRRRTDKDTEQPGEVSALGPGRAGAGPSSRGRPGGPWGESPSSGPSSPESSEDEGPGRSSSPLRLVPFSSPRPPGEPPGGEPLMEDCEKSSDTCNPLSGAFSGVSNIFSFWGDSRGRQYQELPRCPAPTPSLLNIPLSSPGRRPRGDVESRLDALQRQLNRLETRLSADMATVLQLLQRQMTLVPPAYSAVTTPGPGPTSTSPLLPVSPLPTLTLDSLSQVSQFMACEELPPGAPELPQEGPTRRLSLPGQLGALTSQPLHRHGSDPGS

SMILES | hERG current change (%, negative = inhibition) at 10uM
Clc1cccc(Cn2ncc3ccccc32)c1 | 6.32%
CCC(=O)NNC(=O)c1c(O)c2ccccc2[nH]c1=O | 26.2%
Cc1ccc(/C=C/C(=O)Nc2cc(=O)n(C)c(=O)n2C)o1 | 1.7%
Cn1c(=O)cc(SCC(=O)NCCCN2CCN(c3ccc(F)cc3)CC2)c2ccccc21 | -69.2%
CCOC(=O)[C@H]1[C@H]2COc3ccc(Cl)cc3[C@@H]2N2C(=O)CN(Cc3ccc(F)cc3)C(=O)[C@@]12C | 12.1%
Nc1c(N(CCC2=CCCCC2)C(=O)C2CC2)c(=O)[nH]c(=O)n1Cc1ccccc1 | -3.26%
COCc1nnc(NC(=O)CSc2ccccc2)s1 | -21.4%
COc1cc(NC(=S)N2CCC(C(N)=O)CC2)cc(OC)c1 | -12.1%
CCOC(=O)NC(=S)c1ccc[nH]1 | 5.4%
COc1ccccc1N(C(=O)Cn1nnc2ccccc21)C(C(=O)NCc1ccco1)c1ccc(C)o1 (stereo not drawn) | -2.8%
CCN(CC)S(=O)(=O)c1cc(NC(=O)CCNC(=O)c2ccco2)ccc1C | 0.915%
Cc1ccc(CC(=O)N2CCN(S(=O)(=O)c3ccccc3)CC2)cc1C | -55.5%
CSc1nc(C)cc(SCC(=O)Nc2ccccc2)n1 | -13.3%
CCOC(=O)C1CCCN(C(=O)CCCn2nc(C)n3c(cc4sccc43)c2=O)C1 (stereo not drawn) | -49.3%
Cc1ccnc(NS(=O)(=O)c2ccc(N3C(=O)C4CCCCC4C3=O)cc2)n1 (stereo not drawn) | 22.9%
Cc1cc(C)n(C(=O)c2cccc(S(=O)(=O)N3CCCCC3)c2)n1 | -19.3%
N#CC(C#N)=NNc1ccc(-n2ccc(C(F)(F)F)n2)cc1 | -37.7%
COCCn1c(=O)[nH]c2cc(C(=O)N3CCN(c4cc(C)ccc4C)CC3)ccc2c1=O | 4.61%
Cc1cc(C)c(CN2CCCC(CNC(=O)c3ccc(F)cc3)C2)c(-n2cccn2)c1 (stereo not drawn) | -75.6%
O=C(COc1ccc(-c2ccccc2)cc1)N/N=C/c1ccccc1Br | 19.7%
Clc1ccccc1CSc1nnc(-c2ccccn2)n1Cc1ccco1 | -0.318%
NC(=S)N/N=C1\CCOc2ccc(F)cc21 | -76.9%
COc1ccc2oc(C(=O)NCCN3CCOCC3)c(C)c2c1OC | 4.6%

SMILES | hERG current change (%, negative = inhibition) at 10uM
CC(C)(C)c1cc(C(=O)NCCN2CCCC2)cc(C(C)(C)C)c1 | 4.49%
Fc1ccc(C2=Nn3c(nnc3-c3ccco3)SC2)cc1 | 13%
O=[N+]([O-])c1ccccc1S(=O)(=O)c1ccccc1 | 8.29%
COc1cccc(C(=O)Nc2ccc(N3CCN(S(C)(=O)=O)CC3)cc2)c1 | 24.5%
CCc1cccc(C)c1NC(=O)CCCn1c(=O)c2cccn2c2cccnc21 | -12.7%
CCCCCCCN=C(C)c1ccccc1O | 13.5%
CC(=O)Nc1cc2c(cc1C(=O)c1ccccc1)OCCO2 | -1.86%
CC(=O)c1ccc(OC(=O)c2nc(-c3ccccc3)oc2C)cc1 | 22%
O=C(CN1C(=O)C2CC=CCC2C1=O)Nc1nc2ccccc2[nH]1 (stereo not drawn) | 10.4%
O=C(NNc1ccccc1[N+](=O)[O-])Nc1ccccc1 | 1.34%
CCN(CC)C(=O)COc1coc(CN2CCN(c3cccc(Cl)c3)CC2)cc1=O | -16.3%
O=C(Nc1ccc(Cl)c(S(=O)(=O)N2CCCCC2)c1)c1ccco1 | -5.95%
Cc1cc(/C=C2/NC(=O)NC2=O)c(C)n1C | 12.9%
COc1ccccc1N1CCN(C(=O)c2ccc(Cl)c(S(=O)(=O)N3CCOCC3)c2)CC1 | -10.9%
CCN(CC)S(=O)(=O)c1cccc(N2CC(O)=C(c3ccccc3)C2=N)c1 | 2.53%
O=C(NCCc1nc(-c2ccccc2Cl)no1)C1CCCCC1 | -0.163%
COc1cc(NC(=O)Cc2ccc([N+](=O)[O-])cc2)c(C(=O)O)cc1OC | -0.778%
Cc1cccc(C(=O)NNC(=O)c2ccccc2)c1 | 17.7%
COc1ccc(Cc2nnc(SCC(=O)Nc3ccccc3C#N)o2)cc1 | -3.13%
C/C(=N\NC(=O)C1CC1)c1ccccc1O | 0.248%
Cc1ccc2nc(NC(=O)CSc3nnc(C)c(=O)n3N)sc2c1 | 2.09%
CCCCCC(=O)N/N=C(\C)c1ccc(NC(=O)c2ccco2)cc1 | 5.94%
CN1CCN(CCP(=O)(c2ccccc2)c2ccccc2)CC1 | 4.63%

SMILES | hERG current change (%, negative = inhibition) at 10uM
Cc1ccc(NC(=O)C2CCCN(S(=O)(=O)c3ccc(-n4cnnn4)cc3)C2)cc1 (stereo not drawn) | -23.6%
O=C1CCCc2c1[nH]c1ccc(Br)cc21 | 19.2%
Cc1ccc(S(=O)(=O)Nc2ccc(-n3cnnn3)cc2)cc1 | -1.93%
Cc1ccc(-n2c(SCC(=O)Nc3ccc4c5c(cccc35)CC4)nc(O)cc2=O)cc1 | 14.7%
CCc1nnc(NC(=O)C2CCCN2C(=O)NC2CCCCC2)s1 (stereo not drawn) | 10.4%
Cc1ccc(C)c(NC(=O)c2ccccc2NS(=O)(=O)c2cc([N+](=O)[O-])ccc2C)c1 | 9.09%
O=C(CC1C(=O)NCCN1Cc1ccc(-c2ccccc2)cc1)NCC1CCOCC1 (stereo not drawn) | -9.78%
CCN=c1scc(C)n1/N=C/c1ccsc1 | -12.6%
Cc1oc(-c2ccc(Cl)cc2)nc1CN1CCC(C(=O)NCc2ccco2)CC1 | -71.2%
Cc1cccc(-n2c(Cc3ccccc3)n[nH]c2=S)c1 | -0.23%
Cc1cc(C)c(S(=O)(=O)Nc2ccc(OCC(=O)O)cc2)c(C)c1 | 6.93%
CNc1nc(-c2ccc3c(c2)CCN3C(=O)CC(C)(C)C)c(C)s1 | 38%
COc1ccc(N2CCN(C(=O)c3oc4c(c3C)C(=O)CCC4)CC2)cc1 | 6.39%
CC1(C)COC(c2coc3ccccc3c2=O)OC1 | 3.85%
Cc1ccc(C(=O)NNC(=O)c2ccncc2)cc1S(=O)(=O)N1CCOCC1 | 0.578%
O=C(NCCCN1CCCC1)Nc1cccc2ccccc12 | -12.5%
Cc1[nH]n(-c2ccc(Cl)c(Cl)c2)c(=O)c1CCO | 10.1%
COc1ccc(Nc2cnn(-c3nc4ccccc4s3)c(=O)c2Cl)cc1 | -3.58%
COc1ccc(C2c3c(oc4ccccc4c3=O)C(=O)N2CC2CCCO2)cc1 (stereo not drawn) | -9.56%
C=CCN1C(=O)C2(C(C(=O)OCC)=C(N)Oc3ccccc32)C2=C1CCCC2=O (stereo not drawn) | 1.85%
COc1ccc(CN2CCc3ccccc3C2)cc1Br | 14.9%
OC(CNCc1ccccc1)c1ccccc1 (stereo not drawn) | 4.68%
CC(C)CCN(C)C1CCN(S(=O)(=O)c2ccc(F)cc2)CC1.Cl | -47.7%

SMILES | hERG current change (%, negative = inhibition) at 10uM
CCn1c(CNC(=O)Cc2ccc(OC)cc2)nnc1SCCOc1ccccc1 | -25.9%
CC1CCCCC1NC(=O)CCC(=O)N1CCOc2ccc(Cl)cc21 (stereo not drawn) | -4.33%
Cc1ccc(NC(=O)CSc2nnc([C@@H]3CCCN3C(=O)OC(C)(C)C)o2)c(C)c1 | 4.23%
COc1ccc(S(=O)(=O)N(C)C)cc1NC(=O)CN1CCN(C(=O)C2CC2)CC1 | -2.94%
Cc1cc(C=O)c(C)n1-c1ccc(NC2CCCC2)c([N+](=O)[O-])c1 | -13.2%
COc1cccc(-c2csc(N3CCN(Cc4ccccc4)CC3)n2)c1 | 0.166%
CCc1ccc(CN(C)C(=O)c2cc(S(=O)(=O)N3CCN(CC)CC3)ccc2Cl)cc1 | -25.3%
CS/C(=N\S(=O)(=O)c1ccccc1)c1ccccc1 | 0.781%
O=C(Nc1cc(C(F)(F)F)ccc1Cl)C(Sc1cccc[n+]1[O-])c1ccccc1 (stereo not drawn) | -14.5%
CCC(=O)N(Cc1cccs1)C1CCOC(C)(C)C1 (stereo not drawn) | 10.7%
COc1ccc(S(=O)(=O)N2CCCCCC2)cc1C(=O)N1CCCC(C(F)(F)F)C1 (stereo not drawn) | -37.2%
CS(=O)(=O)N(CC(=O)Nc1ccccc1C(=O)N1CCOCC1)c1ccc(F)c(Cl)c1 | 4.45%
OC(c1ccccc1)c1nccn1Cc1ccccc1 (stereo not drawn) | -1.07%
CNc1nc(SC)nc2ccccc12 | 25.2%
C=C(C)c1cccc(C(C)(C)NC(=O)Nc2ccc3[nH]c(=O)[nH]c3c2)c1 | 8.14%
O=C(CN1CCOCC1)Nc1ccc(N2CCN(c3ccccc3)CC2)c(F)c1 | 2.59%
Cc1[nH]c(C)c(S(=O)(=O)N2CCN(c3cccc(Cl)c3)CC2)c1C(=O)N1CCCC1 | -6.94%
O=[N+]([O-])c1ccccc1CN1CCN(S(=O)(=O)Cc2ccccc2)CC1 | 2.17%
Cc1nc(Sc2ccc(Cl)cc2)c(C#N)c(C)c1[N+](=O)[O-] | 6.1%
O=C(CSc1ccccc1F)NC1CCS(=O)(=O)C1 (stereo not drawn) | 23.6%
CCOc1cc2c(C#N)c(N3CCCC3)nc(N)c2c(N)n1 | 3.83%
